# In all, about 33,000 sequences were measured (“E-score (-0.5 to 0.5)”: median about -0.013, highest 2% from about 0.3 on). This is one part of the list.
# Molecular target: T1, Msn1 (UniProt P22148)
# T1 sequence: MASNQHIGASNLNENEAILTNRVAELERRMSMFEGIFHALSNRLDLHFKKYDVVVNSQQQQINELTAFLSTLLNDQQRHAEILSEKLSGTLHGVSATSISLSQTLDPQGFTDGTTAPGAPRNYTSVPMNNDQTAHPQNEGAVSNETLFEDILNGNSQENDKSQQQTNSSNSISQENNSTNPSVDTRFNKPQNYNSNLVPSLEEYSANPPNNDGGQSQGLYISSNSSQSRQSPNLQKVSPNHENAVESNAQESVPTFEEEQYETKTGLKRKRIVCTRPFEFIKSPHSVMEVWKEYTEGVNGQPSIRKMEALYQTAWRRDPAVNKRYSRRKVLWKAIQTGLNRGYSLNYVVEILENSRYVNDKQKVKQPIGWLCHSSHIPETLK
# Test: PBM E-score (8-mer binding enrichment) (E-score (-0.5 to 0.5)); higher = stronger / more preferred TF binding; most listed sequences are background and not binding sites
# Conditions: protein concentration: 200 nM; construct: GST-full length
# Procedure: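 Universal 'all 10-mer' protein binding microarrays (Agilent AMADID 015681) probed with GST-tagged S. cerevisiae TFs (full-length or DBD) made by in vitro transcription/translation (PURExpress), about 100-200 nM. Bound TF was detected with fluorescent anti-GST. Each ungapped 8-mer (which stands for itself and its reverse complement) is scored by the PBM enrichment score (E-score), a modified Wilcoxon-Mann-Whitney statistic from -0.5 to +0.5, computed with the Universal PBM Analysis Suite. Scale: above 0.35 generally sequence-specific binding.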
row,Sequence,PBM E-score
1,AACAATTC,0.0237
2,ATTGTCCA,0.466
3,ACTGAACC,-0.0826
4,CTGATGTC,0.282
5,GGGCATCA,-0.253
6,AACGGCGA,0.26
7,CGGTACAC,0.123
8,GACTGATA,-0.122
9,AGCTCCGC,0.00957
10,ACTAACGC,-0.108
11,AACAAGAC,0.135
12,AATGGTGC,-0.0712
13,AGGGGGGA,-0.317
14,ATTCTTCA,0.0047
15,AATATCTG,0.0275
16,TAGTTCCA,0.162
17,CACTGGGA,0.131
18,ACGTATCT,-0.0508
19,CCAATGCC,-0.181
20,ATCGATTA,0.0588
21,GCACTACA,-0.194
22,AAGGGCCT,-0.235
23,GAAACCGC,0.113
24,AATGTTGG,0.0344
25,ATTTAACG,0.225

row,Sequence,PBM E-score
1,CGTAGCCC,-0.24
2,AATGGACG,0.185
3,GAGCGTCC,-0.0385
4,AGAGTCGC,-0.0259
5,ATGACACC,0.0663
6,ACTCCTAG,-0.216
7,GGGGCTGA,-0.148
8,TCGGAACA,0.268
9,CGTATTTA,0.0612
10,CAGGGCCC,-0.274
11,ACTCTCAA,-0.188
12,AGGCTACA,-0.0622
13,CGATCAGC,-0.0543
14,AAGGTTAG,-0.0111
15,AGATCCCG,0.143
16,GGCCAGTA,-0.205
17,CTGTTAAC,0.134
18,CACCTCTA,-0.0449
19,CCAGCACC,-0.33
20,CCTTACCA,-0.00326
21,AATGTTAT,0.131
22,ACCACCCC,-0.311
23,ACTTAAAG,0.0376
24,CGGCTTGA,-0.0233
25,TAAACAAA,0.112

row,Sequence,PBM E-score
1,CAACGCCC,-0.0372
2,CCGACAGG,-0.0401
3,ATCGCGTG,0.143
4,CAATACAG,0.0204
5,CTACAATC,0.0383
6,CTTTGGAA,0.0683
7,CGGATATA,0.0681
8,CCTTAATC,-0.105
9,CGCTGCTC,-0.155
10,AAATTCGC,0.159
11,CACCCGCA,-0.178
12,GCGCTTAC,-0.0967
13,AACAACAT,-0.0176
14,AGTGTAGG,-0.0552
15,ACTCAAGT,-0.113
16,TGCGGACA,0.427
17,GGGCTACA,-0.0374
18,GACATAAC,0.396
19,CACAGAGC,0.0229
20,AGATTTTG,0.0738
21,CACGTGCA,0.0963
22,CTTAGCAA,-0.0942
23,ACTGATTC,0.0073
24,GAAATTCA,0.103
25,AGCTTAAA,0.0461

row,Sequence,PBM E-score
1,CGGTAAGC,-0.182
2,AACCTATG,-0.0616
3,GTCGCGAC,0.349
4,CCGCAAGC,-0.199
5,GCTTCAAA,-0.109
6,GGACCTCA,-0.0111
7,ATGAGGGC,-0.168
8,ACAAAGGC,0.098
9,AATGTGCG,-0.0792
10,AGAACATC,0.0117
11,CTAACTTC,0.00461
12,GGCACTGA,0.00441
13,AGCTTCTG,-0.0868
14,AACGTGCC,-0.152
15,AGACATGA,0.226
16,GGAACTTA,0.0221
17,GCTTCTGA,-0.0591
18,ATTCACAC,0.00376
19,GCTACGCA,-0.215
20,AAGAGCGT,0.128
21,GTGAGCAA,-0.0451
22,GCGATGCC,-0.171
23,CCCCTCAC,-0.143
24,CCTAGGAC,0.261
25,GAGTCAGC,-0.246

row,Sequence,PBM E-score
1,ACAAATCG,0.276
2,AAGATAGG,-0.0615
3,AAGGCCCG,-0.199
4,ATTGGGGC,-0.08
5,AGCATATG,-0.151
6,TAAACCCA,-0.0338
7,CTTATCGA,0.141
8,AGCTCCAT,-0.251
9,GGTATATA,0.185
10,CATGAGGC,-0.225
11,GTCTATAA,0.158
12,ACACTATA,0.17
13,AGATAGAA,-0.00957
14,ATCAACAG,6e-05
15,ACAGGGAC,0.324
16,CTCCGTGC,-0.0848
17,ACTCCCAG,0.0682
18,CATCCGAC,0.147
19,ACAGGATG,0.0943
20,ACAGGAGA,0.122
21,TGGGAGAA,-0.209
22,ACATCCGC,0.227
23,ATCAGCCG,-0.01
24,GTGTTGCA,-0.105
25,AGCCCTAC,-0.128

row,Sequence,PBM E-score
1,CTATTAAC,0.241
2,CAATAGCG,-0.138
3,GGGATTAA,0.0402
4,ATAAGGAA,-0.204
5,GTCATCTA,0.151
6,AGAAATCT,-0.0155
7,GACATGCC,0.337
8,ATTTTCGG,0.142
9,ATTGACTG,-0.00757
10,TTATACAA,0.136
11,CATCTCCA,-0.0799
12,CCGGGACG,-0.0555
13,ACACATTG,0.171
14,ACGAACAT,0.181
15,CGCTGTAA,0.0882
16,AGAATTCA,0.0752
17,CTTCTGGA,-0.0254
18,ACTGCAGT,0.0373
19,TGCTTCCA,-0.146
20,AGGGCCAG,-0.278
21,ACTCCCAT,-0.0704
22,GGCCTCCC,-0.318
23,AAATTGTT,0.143
24,ATATGGTC,0.155
25,CCACGCAC,-0.11

row,Sequence,PBM E-score
1,CTCGCTTA,-0.0567
2,ATCTGCCA,-0.0272
3,ACCACACA,0.0342
4,GGAGGGCC,-0.273
5,CTGACCTA,0.0361
6,ACAGCTGC,-0.0289
7,ATAACCTG,-0.054
8,ATGATTGA,-0.0128
9,ACCGCTGC,-0.271
10,CATTGTAA,0.134
11,AACCGCAG,-0.113
12,ACGACTCC,-0.181
13,CATCATGA,0.0772
14,CCTAACGC,-0.129
15,AGCTGAAT,-0.00627
16,CATCAGTA,0.0122
17,CACTGTTA,-0.116
18,AACCGAGG,-0.21
19,CGTTCCTC,-0.12
20,GAGTTGTA,0.12
21,CCCCGCCG,-0.371
22,CGACTGAG,-0.14
